# Data reported in ChEMBL document CHEMBL4888484, “Replenishing the malaria drug discovery pipeline: Screening and hit evaluation of the MMV Hit Generation Library 1 (HGL1) against asexual blood stage Plasmodium falciparum ,using a nano luciferase reporter read-out” (2022).
# In all, about 150,000 compounds went through this assay and about 540 (0.36%) showed an effect of 50% or more. This is one part of the list.
# Test system: Plasmodium falciparum
# Test: Primary screen in NF54 nanoGlo assay, in single point, at 2uM, 72h; a lower Z score goes with more inhibition
# Assay type: functional, Erythrocyte
# Conditions: timepoint 72 hour
SMILES,% Inhibition,Z score
COc1ccc(Cn2cc([C@H](CC(=O)N3CCOCC3)c3ccc(F)cc3)c3ccccc32)cc1,10%,-1.3
COc1ccc(CNC(=O)[C@@H]2CCC[C@@H](NC(=O)Nc3cccnc3)CN(C)C(=O)C2)cc1,-8%,1.19
CN(C)c1ncn(-c2cccc(NCc3cc(F)c(F)c(F)c3)c2)n1,2%,-0.38
Cc1ccc(CN(C)C(=O)N[C@H]2CCCc3ccc(C)cc32)nc1,-3%,0.37
C[C@H](NC(=O)C1CCc2nnn(C)c2C1)C1CCCC1 (stereo partly specified),-7%,0.78
COc1cc(-c2noc(CNC3CCCCC3OC)n2)ccc1C (stereo unspecified),-9%,1.52
O=c1c2c(ncn1Cc1ccc(F)cc1)c1ccccc1n2Cc1cccc(Cl)c1,-1%,0.14
CCC(CC)n1ccc(C(=O)NC2(C(=O)OC)CCCC2)n1,-6%,0.96
O=S(=O)(C1CCC1)N1CCO[C@H](C(F)(F)F)CC1,1%,-0.08
COc1ccc(-c2nn3c(Cc4ccccn4)nnc3s2)cc1OC,36%,-4.04
Nc1nnc(CCOc2ccccc2)o1,10%,-1.36
C[C@@H](C(=O)Nc1ccc(-c2nnc3n2CCC3)cc1)n1cccn1,-13%,2.28
CN1CCN(C(=O)c2nc3ccccc3s2)CC1=O,9%,-1.17
O=C(Nc1ccccc1)c1ccc(NC(=O)N2CCc3ccccc3[C@@H]2CO)cc1,-5%,0.87
O=C(c1ccc(C(F)F)c(F)c1)N1CCO[C@H](c2nnn[nH]2)C1,-15%,1.73
CCOc1ccccc1C(=O)N1CCC2(CC1)C[C@@H](C(=O)NCCCOC)N(C)C2=O,-9%,1.07
C1CCCN(Cc2nc(C3CC3)no2)CCC1,-6%,0.91
CC1CC1C(=O)Nc1nc(C2CC2)cs1 (stereo unspecified),-2%,0.27
CN(C)C(=O)N[C@@H](Cc1ccccc1)C(=O)N1CCCCC1,8%,-1.01
COc1ccc(N[C@H]2CCCN(C(=O)c3oc(C)cc3C)C2)cc1OC,-11%,1.65
CN(Cc1cn(C)nc1C(F)(F)F)C(=O)N[C@H]1CCCC12CCCCC2,7%,-1
CCc1noc(C)c1C(=O)NC(c1ccccc1)c1ccccc1,-13%,1.22

SMILES,% Inhibition,Z score
Cc1cccc(O[C@@H]2CNCCOC2)n1,-10%,1.45
C[C@@H](C1CC1)N(C(=O)Cn1cc(C(N)=O)nc1C1CC1)C1CC1,-8%,1.53
CCOC1(OCC)[C@@H](c2ccc(OC)cc2)C(C#N)(C#N)C1(OCC)OCC,-29%,3.41
COc1ccc(-c2cn(C3CCN(C(C)=O)CC3)nn2)cc1,-20%,2.73
Cc1cnn(C(C)C(C)Nc2ncnc3c2CCC3)c1 (stereo unspecified),4%,-0.48
CN1CCN(c2nc(CS(=O)(=O)c3ccccc3)cs2)CC1,-2%,0.22
O=C(NC(c1ccccc1)c1ccccc1)N1CC(n2nccn2)C1,-21%,2.38
CN1CCN(C2Cc3ccccc3[S+]([O-])c3ccc(Cl)cc32)CC1 (stereo unspecified),3%,-0.39
CC1CC(C)CN(CC(O)COCC2=CCC3CC2C3(C)C)C1 (stereo unspecified),1%,-0.15
Cn1cc(S(=O)(=O)NC[C@H]2CCNCC2(F)F)cn1,20%,-2.53
Cc1nccc(OC2CCN(C(=O)c3cc4n(n3)CCCO4)CC2)n1,-4%,0.7
CN=C(N[C@@H](C)c1ccccn1)c1ccco1,-10%,1.25
COc1ccc(N2CCN(C(=O)[C@@H]3CCC(=O)N3S(=O)(=O)c3ccccc3)CC2)cc1,-1%,0.17
COc1ccc(O)cc1-c1nc2c([nH]1)c(C)nn2Cc1ccccc1Cl,-2%,0.21
O=C(NC1CC1)[C@@H]1CCCN1c1ccc(OC(F)F)cn1,0%,-0.01
CN(Cc1n[nH]c2c1CCC2)C(=O)CN1CCOCC1,1%,-0.28
Cc1cc(-c2noc(CNC(=O)[C@H]3CCS(=O)(=O)C3)n2)no1,-12%,2.41
O=C(CC(C1CCC1)C1CCC1)NCc1c(O)cccc1O,-8%,0.95
CC(C)n1cc(NC(=O)CCc2ccnn2C)cn1,-6%,1.04
O=C(NCCN1CCCCC1)[C@@H]1CCCO1,12%,-1.75
CN1C[C@H](NC(=O)N2CCC(F)(F)CC2)c2sccc2S1(=O)=O,0%,0.03
